Laboratory results as given in PubChem BioAssay (NCATS).
“And” between values parts separate entries of the source, which are not always exact repeats. Equal entries are not always repeated. Inconclusive results, whose numbers are uncertain, are shown with a selection of clear calls. A potency beside an inconclusive call is a rough fit, not a confirmed value. Where a structure was tested more than once in an assay, its records may differ in their call. The source made the active and inactive calls. The call rests on the fitted dose curve; in most records, active means well fitted curve in the direction sought with a large enough effect; inconclusive means small, poorly fitted or top-dose-only effect, or another doubt; inactive means no such curve, though single readings can be large; an effect the other way counts as inactive or inconclusive.

test system: Zika virus NS2B-NS3 protease; experiment: Primary screen GU AMC qHTS for Zika virus inhibitors (AID 1347154); conditions: Zika NS2B-NS3 unlinked protease, AMC fluorogenic substrate; series mostly up to 54.1 µM; activity change, negative = inhibition: at the top concentration; further: nearly all actives have a fitted effect of over 70% in size;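 on activity change, negative = inhibition: 0% = no-inhibitor control and -100% = no-enzyme control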
Procedure, shortened: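 Unlinked Zika NS2B hydrophilic domain/NS3 protease domain noncovalent complex (25 nM final) in 10 mM Tris-HCl pH 8.0, 0.01% Tween 20, with AMC peptide substrate. Fluorescence (ex 340, em 450 nm) change over 15 min, room temperature; percent inhibition fitted to 4-parameter Hill equation.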
Potency means the concentration at half of the fitted maximal effect; tags describe the fitted curve by direction and shape.

With `Cc1ccc(C(=O)c2cc(O)c(O)c([N+](=O)[O-])c2)cc1` as the compound, how does the Potency read?
The Potency was inconclusive: 11.4 µM [inhibitor, partial curve] and inconclusive: 3.04 µM [inhibitor, full curve].

Which Potency does the source give for `O=C(O)c1cn(-c2ccc(F)cc2)c2cc(N3CCNCC3)c(F)cc2c1=O` here?
Its Potency is inconclusive: 11.1 µM [inhibitor, partial curve] and inconclusive: 21.5 µM [inhibitor, partial curve] and inconclusive: 37.7 µM [inhibitor, partial curve, poor fit].

For `CCOC(=O)C1=C(O)C(=O)N(Cc2ccccc2)C1`, which “activity change, negative = inhibition” value is on record?
The value was inactive: 10.1%.

Which Potency does the source give for `CN1CCN(c2cccc(Nc3nc4c(-c5ccc(S(C)(=O)=O)cc5)cccn4n3)c2)CC1` here?
The Potency was inconclusive: 34.1 µM [inhibitor, partial curve, poor fit].

For `CO[C@@H](C(=O)N1Cc2[nH]nc(NC(=O)c3ccc(N4CCN(C)CC4)cc3)c2C1)c1ccccc1`, which Potency is on record?
Its Potency is inconclusive: 42.9 µM [inhibitor, partial curve, poor fit].

Which Potency does the source give for `CCC(=O)N[C@H]1CC[C@H](C(=O)N(C)c2ccc(-c3nc4ccccc4o3)cc2)C1` here?
The Potency was inconclusive: 24.1 µM [inhibitor, partial curve, poor fit].

Which Potency does the source give for `N#CC(c1ccnc(NCCc2cccnc2)n1)c1nc2ccccc2s1` (stereo not drawn) here?
Its Potency is inconclusive: 24.1 µM [inhibitor, partial curve].

For `Nc1cc(C(Cl)=C(Cl)Cl)c(S(N)(=O)=O)cc1S(N)(=O)=O`, which Potency is on record?
The Potency was “inactive”.

For `O=C1Nc2ccc(Cl)cc2C(C#CC2CC2)(C(F)(F)F)O1` (stereo not drawn), which Potency is on record?
Its Potency is inconclusive: 21.5 µM [inhibitor, partial curve, poor fit].

For `OC[C@H]1O[C@@H](Oc2cc(O)cc(C=Cc3ccc(O)cc3)c2)[C@H](O)[C@@H](O)[C@H]1O`, which Potency is on record?
Its Potency is inconclusive: 24.1 µM [inhibitor, partial curve].

With `N=C(N=C(N)N)N1CCOCC1` as the compound, how does the Potency read?
The Potency was “inactive”.

Which Potency does the source give for `CC1(C)Cc2c(-c3ccccc3)c(-c3ccc(Cl)cc3)c(CC(=O)O)n2C1` here?
The Potency was inconclusive: 21.5 µM [inhibitor, partial curve].

Which Potency does the source give for `O=C(NC(Cc1cc(=O)[nH]c2ccccc12)C(=O)O)c1ccc(Cl)cc1` (stereo not drawn) here?
Its Potency is “inactive”.

For `Cc1nccn1CC1CCc2c(c3ccccc3n2C)C1=O` (stereo not drawn), which Potency is on record?
The Potency was “inactive”.

For `CN(N=O)C(=O)N[C@H]1C(O)OC(CO)[C@@H](O)[C@H]1O` (stereo partly drawn), which “activity change, negative = inhibition” value is on record?
The value was inactive: 8.04%.

For `OCCN(CCO)c1nc(N2CCCCC2)c2nc(N(CCO)CCO)nc(N3CCCCC3)c2n1`, which Potency is on record?
Its Potency is inconclusive: 48.2 µM [inhibitor, single point] and inconclusive: 8.33 µM [inhibitor, single point].

For `O=C(O)[C@H]1O[C@H](Oc2cc3oc(-c4ccccc4)cc(=O)c3c(O)c2O)[C@H](O)[C@@H](O)[C@H]1O`, which Potency is on record?
The Potency was inconclusive: 2.41 µM [inhibitor, full curve, poor fit].

Which Potency does the source give for `COc1ccccc1OCCNCC(O)COc1cccc2[nH]c3ccccc3c12` (stereo not drawn) here?
The Potency was inconclusive: 28.7 µM [inhibitor, partial curve, poor fit].

For `CCNC(=O)c1cc2c(-c3cc(OCCN4CCCC4)c(Cl)cc3Cl)nc(N)nc2s1`, which Potency is on record?
Its Potency is inconclusive: 3.41 µM [inhibitor, full curve].

test system: not listed separately; experiment: ZIKV-mCherry secondary qHTS for Zika virus inhibitors (AID 1347158); conditions: Vero cells, ZIKV-mCherry infection imaging, 48-72 h; series mostly up to 49.2 µM; activity change, negative = inhibition: at the top concentration; on activity change, negative = inhibition: top concentration of the series differs between compounds
Procedure, shortened: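 Read-out is percent infection: mCherry-positive Vero cells (nuclear-proximal intensity >450 RFU, 3 SD above negative controls) counted by high-content imaging of Hoechst-stained, PFA-fixed wells after 48-72 h with ZIKV-mCherry at MOI 1 and compound.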

For `N[C@@H](Cc1cc(I)c(Oc2cc(I)c(O)c(I)c2)c(I)c1)C(=O)O`, which “activity change, negative = inhibition” value is on record?
Its value is inactive: 1.96%.

For `CC1CCC(C(=O)N(c2cc(C#CC(C)(C)C)sc2C(=O)O)C2CCC(O)CC2)CC1` (stereo not drawn), which Potency is on record?
Its Potency is inconclusive: 11.2 µM [inhibitor, full curve].

Which “activity change, negative = inhibition” value does the source give for `Cc1ccc(-n2[nH]c(C)c(N=Nc3cccc(-c4cccc(C(=O)O)c4)c3O)c2=O)cc1C` here?
The value was inactive: 3400%.

With `NC(=O)c1ccc2nc(-c3ccc(Oc4ccc(Cl)cc4)cc3)[nH]c2c1` as the compound, how does the Potency read?
The Potency was inconclusive: 7.94 µM [inhibitor, full curve, poor fit].
